Data reported in publication PMC4336329 (PLoS ONE, 2015).
The whole screen tested about 310,000 compounds, of which about 2,200 (0.71%) showed an effect of 50% or more. The effect is printed as a negative number. The list shows a part of the results.

These compounds were tested against human ether-à-go-go-related gene (hERG) potassium channel (human, UniProt Q12809) (assay: primary screen, population patch clamp on CHO cells stably expressing hERG).
Chain of human ether-à-go-go-related gene (hERG) potassium channel (Q12809 whole entry, looked up): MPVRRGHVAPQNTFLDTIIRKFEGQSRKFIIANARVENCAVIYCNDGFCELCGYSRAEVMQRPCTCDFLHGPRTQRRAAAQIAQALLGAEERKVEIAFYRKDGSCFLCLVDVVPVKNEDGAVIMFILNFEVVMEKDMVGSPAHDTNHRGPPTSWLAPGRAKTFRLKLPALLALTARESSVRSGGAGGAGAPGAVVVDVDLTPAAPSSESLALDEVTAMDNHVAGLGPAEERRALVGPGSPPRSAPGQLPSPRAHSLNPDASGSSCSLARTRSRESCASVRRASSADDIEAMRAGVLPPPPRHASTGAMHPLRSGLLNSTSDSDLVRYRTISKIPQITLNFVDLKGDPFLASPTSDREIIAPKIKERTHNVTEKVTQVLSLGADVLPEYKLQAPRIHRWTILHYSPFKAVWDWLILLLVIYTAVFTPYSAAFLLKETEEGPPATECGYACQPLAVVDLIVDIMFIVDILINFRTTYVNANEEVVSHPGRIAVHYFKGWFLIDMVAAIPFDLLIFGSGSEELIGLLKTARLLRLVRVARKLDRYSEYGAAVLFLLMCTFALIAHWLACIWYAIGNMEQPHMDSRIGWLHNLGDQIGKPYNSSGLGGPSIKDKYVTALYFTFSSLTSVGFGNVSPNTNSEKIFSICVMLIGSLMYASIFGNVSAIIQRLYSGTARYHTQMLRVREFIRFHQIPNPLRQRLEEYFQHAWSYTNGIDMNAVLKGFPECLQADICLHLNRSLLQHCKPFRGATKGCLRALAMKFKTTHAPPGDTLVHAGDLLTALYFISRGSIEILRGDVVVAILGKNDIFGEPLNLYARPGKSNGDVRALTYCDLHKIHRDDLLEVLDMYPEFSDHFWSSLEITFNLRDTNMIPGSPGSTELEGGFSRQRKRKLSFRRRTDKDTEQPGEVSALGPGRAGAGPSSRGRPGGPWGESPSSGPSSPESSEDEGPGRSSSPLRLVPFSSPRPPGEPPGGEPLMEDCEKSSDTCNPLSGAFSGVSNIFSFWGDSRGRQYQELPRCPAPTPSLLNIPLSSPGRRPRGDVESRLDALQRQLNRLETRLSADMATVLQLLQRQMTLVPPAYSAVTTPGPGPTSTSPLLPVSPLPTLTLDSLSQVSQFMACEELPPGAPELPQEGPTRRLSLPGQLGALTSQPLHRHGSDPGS

Row | Structure (SMILES) | hERG current change (%, negative = inhibition) at 1uM [%]
1 | Cc1ccc(-n2c(=O)cc(N3CCN(C(=O)c4ccco4)CC3)[nH]c2=O)cc1 | 6.54
2 | CCOc1cc(N2CCOCC2)c(OCC)cc1NC(=O)CSc1n[nH]c(N)n1 | 16.2
3 | O=C(Nc1nc2cc3c(cc2s1)OCO3)C1=COCCO1 | 5.36
4 | NC(=O)c1ccc(C(=O)Nc2ccc([As](=O)(O)O)cc2)cc1 | 12.2
5 | O=C1NC[C@@H](Cc2ccc(O)cc2)N(CCc2cccc3ccccc23)C1=O | 9.78
6 | Cc1ccc(C(=O)NC2CCCC2)cc1S(=O)(=O)N1CCCCC1 | 9.1
7 | O=C(NCC1CCCO1)c1nn2c(C(F)(F)F)cc(-c3ccco3)nc2c1Cl (centres unmarked) | 6.3
8 | CO/N=C/NC(=O)c1c(OC)ccnc1Oc1ccccc1 | 9.86
9 | Cl.O=C(O)C(c1ccccc1)N1CCCC1 (centres unmarked) | 8.24
10 | CCc1cc2c(COC(=O)CCNS(=O)(=O)c3cccc(C(F)(F)F)c3)cc(=O)oc2cc1O | 6.34
11 | O=C(Nc1ccccc1N1CCN(c2ccccc2)CC1)c1cccc(F)c1 | 6.69
12 | CCN(CCCNC(=O)CNC(=O)Cn1cnc2ccccc2c1=O)c1ccccc1 | 2.69
13 | CCOC(=O)N1CCN(C(=O)c2cc(OCC)c(OCC)c(OCC)c2)CC1 | 8.58
14 | COC(CNc1nc(SC)nc2sc3c(c12)CCN(C)C3)OC | -13.6
15 | O=C(Nc1ccc(S(=O)(=O)Nc2nccs2)cc1)c1ccc(S(=O)(=O)N2CCOCC2)cc1 | 20.5
16 | Cn1c(=O)c([N+](=O)[O-])c(N2CCSCC2)c2ccccc21 | 22.1
17 | COCCNC(=O)C1CCC(=O)N1S(=O)(=O)c1ccc(C)cc1 (centres unmarked) | 16.9
18 | Cn1c(-c2ccsc2)c(-c2cccs2)c2cc(-c3ccc4cc[nH]c4c3)ccc21 | 18.8
19 | COc1ccccc1OCc1nc2ccccc2[nH]1 | 3.99
20 | CC(C)NC(=O)COC(=O)c1cc(Br)ccc1Cl | 11.4
21 | COCc1cc(C)nc(N/N=C/c2ccc(-c3cc(C(=O)O)ccc3Cl)o2)c1C#N | 16.2
22 | CCc1nnc(NS(=O)(=O)c2ccc(N/C=C/C(=O)c3ccc(C)cc3)cc2)s1 | 13.7
23 | O=S(=O)(c1ccc(C2CCCCC2)cc1)N1CCN(c2ncccn2)CC1 | 5.39

Row | Structure (SMILES) | hERG current change (%, negative = inhibition) at 1uM [%]
24 | CCc1ccc(OCCCC(=O)O)c(Br)c1 | 8.96
25 | C1CCc2nnc(-c3nnc4n3CCCCC4)n2CC1 | 0.993
26 | COC(=O)c1ccc2c(c1)C(C)(C)C(/C=C/c1ccc(OC)c(OC)c1OC)=[N+]2C.[I-] | 7.11
27 | CCC1(c2ccccc2)NC(=O)N(CC(=O)NCCN2C(=O)S/C(=C\c3cccnc3)C2=O)C1=O (centres unmarked) | 15.9
28 | O=C(c1ccccc1Oc1ccccc1)N1CCN(c2ccccc2F)CC1 | 5.99
29 | COc1ccc(-n2cnnc2SCC(=O)c2cc(C)n(Cc3cccs3)c2C)cc1 | 4.51
30 | O=S(=O)(c1ccccc1)N1CCC(O)(CSc2ccccc2)CC1 | 8.97
31 | O=C(Cn1nnc(N2CCCCC2)n1)c1ccc(Cl)c(Cl)c1 | 9.25
32 | Nc1nc(N)c2[nH]cnc2n1 | -6.13
33 | Clc1cccc(Oc2cnc3ccccc3n2)c1 | 8.16
34 | Cc1nccn1CCCN1C(=O)CNC1=S | 12.2
35 | CCCCOc1ccc(C(=O)NCC(=O)NCC(c2ccc(OC)cc2)N2CCOCC2)cc1 (centres unmarked) | 5.17
36 | CC(NC(=O)Cc1cccs1)C(c1cccs1)N1CCN(c2ccccc2F)CC1 (centres unmarked) | -3.48
37 | Cc1ccc(C(=O)N(c2ccccn2)C(C)c2ccco2)cc1C (centres unmarked) | -3.44
38 | O=C(O)COc1cnc2ccccc2n1 | 11.8
39 | O=S(=O)(c1ccc(OCC(O)CN2CCCCC2)cc1)N1CCOCC1 (centres unmarked) | 23.3
40 | O=S(=O)(O)c1nc2ccccc2n1CCOc1ccccc1 | 11.5
41 | Cc1ccc(NC(=O)Cn2c(=O)cnc3ccccc32)cc1S(=O)(=O)N1CCCCC1 | 4.36
42 | COCCSc1nnc(NC(=O)C(C)(C)C)s1 | 8.7
43 | CCCc1cc2c(cc1NC(=O)c1ccco1)OCO2 | 9.18
44 | Cc1ccc(C(=O)c2cn[nH]c2-c2ccccc2O)cc1 | 18.1
45 | Cc1ccc(S(=O)(=O)CC(=O)N2CC(C)OC(C)C2)cc1 (centres unmarked) | 0.13
46 | S=C(Nc1ccccc1Cl)N1CCCCC1 | 19.3

Row | Structure (SMILES) | hERG current change (%, negative = inhibition) at 1uM [%]
47 | Cc1cccc(OCC(=O)NC(C)C(=O)N/N=C/c2c(OCc3ccccc3)ccc3ccccc23)c1 (centres unmarked) | 1.68
48 | COC(=O)c1ccc(-n2nnnc2SCC(=O)Nc2ccccc2OC)cc1 | 10.6
49 | COc1cc(CNCc2cccs2)ccc1OCc1ccccc1.Cl | -5.06
50 | Cc1ccc2occ(CN3CCN(c4ccccc4)CC3)c(=O)c2c1 | -6.76
51 | CCc1ccc(-n2cc(-c3ccc(F)cc3)[n+]3c2SCCC3)cc1.[Br-] | -31.3
52 | CC(C)CNS(=O)(=O)c1cc2c3c(c1)CC(=O)N3CCC2 | 13.5
53 | O=c1cc(CO)occ1OCc1cccc(F)c1 | 5.88
54 | O=c1c2cn[nH]c2[nH]c(=S)n1-c1ccccc1F | 22.4
55 | Cc1ccc(S(=O)(=O)N2CCN(C(=O)COC(=O)COc3ccccc3)CC2)cc1 | 29.9
56 | CSc1ccccc1OCc1cc(C(=O)NC(C)Cn2cncn2)no1 (centres unmarked) | 7.43
57 | CSCC[C@H](NC(=O)OC(C)(C)C)c1nnc(SCc2ccccc2)o1 | 9.97
58 | c1ccc2c(CN3CCSCC3)cccc2c1 | 9.87
59 | CC(C)OC(=O)c1ccc(NC(=O)C2C3CC4OC(=O)C2C4C3)cc1 (centres unmarked) | 11.8
60 | CCCCn1c(SCC(=O)N2CCCC2)nnc1-c1ccccc1 | 16.1
61 | Cc1cc(C)c2c(c1)cc(C)c1nnc(SCC(=O)Nc3cc(C)on3)n12 | 5.07
62 | COc1ccc(C(=O)NCCS(=O)(=O)N2CCCC2)cc1 | 4.93
63 | CC(NC(=O)CCOc1ccccc1)c1ccccc1 (centres unmarked) | 10.9
64 | CC1CCN(Cc2nc(Cl)c3c4c(sc3n2)CCC4)CC1 | 2.99
65 | CCc1ccccc1NC(=O)CN(c1cccc(OC)c1)S(C)(=O)=O | 15.5
66 | Cc1cccc(N2C(=O)c3cccc4cccc(c34)C2=O)c1 | 19.6
67 | CC(C)N1C(=S)SC2CS(=O)(=O)C=C21 (centres unmarked) | 12.3
68 | CCCCC(CCC(=O)Nc1cc([N+](=O)[O-])ccc1O)C(=O)O (centres unmarked) | 17.7
69 | CC(C)COc1cccc(-c2cc(C(=O)Nc3ccon3)c3ccccc3n2)c1 | 21.1

Row | Structure (SMILES) | hERG current change (%, negative = inhibition) at 1uM [%]
70 | O=c1cc(O)n(-c2ccc(F)cc2)c(=S)[nH]1 | 13.9
71 | CC(=O)N(CCC1(c2ccc(C)cc2)CCOC(C(C)C)C1)Cc1ccco1 (centres unmarked) | 13.1
72 | S=C(NCc1cccnc1)Nc1cccc2ccccc12 | 0.343
73 | Cc1onc(C(=O)N2CCN(C(c3ccccc3)c3ccccc3)CC2)c1[N+](=O)[O-] | 2.68
74 | COc1ccc(OCC(=O)Nc2ccc(OC)c(S(=O)(=O)N3CCCCC3)c2)cc1 | -2.82
75 | O=C(Cc1ccccc1)N/N=C/c1ccc([N+](=O)[O-])s1 | 12.5
76 | S=C(NCCc1ccccn1)Nc1cccc(Cl)c1 | 10.1
77 | Cc1cccc(CS(=O)(=O)Cc2ccc(C(=O)NC3CCCC3)o2)c1 | 10.6
78 | CCOC(=O)CSc1nc2sc3c(c2c(=O)n1-c1ccc(OCC)cc1)CCN(C)C3 | -1.09
79 | Cc1cccc(C(=O)NCC(c2ccco2)N(C)C)c1 (centres unmarked) | 8.88
80 | NC(=O)c1cc(S(=O)(=O)NC2CCCCC2)co1 | 1.43
81 | Cc1cccc(NC(=O)CCNS(=O)(=O)c2ccc(Cl)cc2)c1 | 12.6
82 | CCOc1cc(C(=O)Nc2ccc(N3CCN(C(C)=O)CC3)cc2)cc(OCC)c1OCC | 11.1
83 | COc1ccc2c(C)c(C(=O)N3CCN(Cc4ccccc4)CC3)oc2c1.Cl | 1.27
84 | O=C(CN1C(=O)NC2(CCCC2)C1=O)Nc1ccc(F)c(F)c1F | 2.19
85 | COc1cc2c(cc1OC)C(c1ccccc1)N(C(=O)c1cccc(S(C)(=O)=O)c1)CC2 (centres unmarked) | 4.8
86 | Cc1ccc(N2C(=O)CC(Sc3nccc(C)n3)C2=O)cc1 (centres unmarked) | 11.4
87 | CC(C)(C)NC(=O)/C(=C\c1cccnc1)NC(=O)c1ccco1 | 7.61
88 | Cc1nn(-c2ccccc2)nc1C(=O)Oc1cc(C(F)(F)F)nn1-c1ccccc1 | 8.96
89 | Cc1ccc(=O)n(C(C(=O)NCc2ccco2)C(=O)c2ccc(F)cc2)c1 (centres unmarked) | 6.1
90 | COc1ccc2c(c1)[nH]c1c(=O)n(Cc3ccco3)cnc12 | 13.9
91 | O=C(CCc1ccccc1)NCCSc1ccccc1 | 5.41
92 | CCC(C)NC(=O)CSc1nnc(-c2ccc(Cl)cc2)n1N (centres unmarked) | 3.79
